Our source for the binding signal values is publication PMC12136788.

Some of the results follow.

First the molecules themselves.
T1: UNK ZnF1-3 (human, UniProt Q9C0B0 31-174)
T1 sequence: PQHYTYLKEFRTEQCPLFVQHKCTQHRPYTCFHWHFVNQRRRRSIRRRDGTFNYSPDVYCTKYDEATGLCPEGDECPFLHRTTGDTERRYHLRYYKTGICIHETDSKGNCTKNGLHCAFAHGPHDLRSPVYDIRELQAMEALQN

B1: chr7:56126341:56126342:+_ENSG00000146731_ENST00000540286|hu_mus|hu_hu_hu_mus_True|8_98 (ssRNA)
RNA: GGGAGUUCUACAGUCCGACGAUCCAUGUUUCUCCUCUUAGCUCUGCGCAGAGCUACGAUCCCUUCUUUCGCAAGGGCAUCUAAGGAAAAGGGGUCAAUCCCCUUUUGAUUAAUAACGACAAAUCCUUUAUCUGAAUCACCACACAACAGAGGAUUGAGCAUCA
B2: 36442829_36447374_875_3pUTR_ENSG00000112078_ENST00000373731|human|control|control (ssRNA)
RNA: GGGAGUUCUACAGUCCGACGAUCAAUAAUCCAGCACUGUGCGAAAUACAGUUGCACUGAUGCCUUCAGCAAUCUCAUACUCUCCCUUCUCAUUGGGCCGAGUGAAGUUGUACUCUCUUCCUGGUCCAAACAUCCUUCCCAGCACAACAGAGGAUUGAGCAUCA
B3: 24995746_24995866_2247_CDS_ENSG00000133226_ENST00000323848|human|control|control (ssRNA)
RNA: GGGAGUUCUACAGUCCGACGAUCAGACCCUUUCCUAUGCUUGGAUGAUAAUGAAGGUGAACGUCUCUUGGUGACUGGGGAGCUUCUUUGUUUGGGAGGUGGAGAAUGGGAGACCCGCCGCUUUGGUGGUGGAGAUGGUGAUGCCAACAGAGGAUUGAGCAUCA
B4: chr10:94110891:94110892:+_ENSG00000198060_ENST00000358935|hu_hu|FALSE|FALSE (ssRNA)
RNA: GGGAGUUCUACAGUCCGACGAUCUUCUGGAUAAUUCAGAAUUUUGCGGUGUGCCUGUCGUAAAUAUUGCUGCUGUUUGAAGUAAACUUUAAAUGCUCCUUUUAUGGCAACAAACGCAAUUCCACCCAAGAUUGUCCUUUGUAACAACAGAGGAUUGAGCAUCA
B5: chr4:34756745:34756746:-_ENSMUSG00000039967_ENSMUST00000047950|mus_mus|motif|central (ssRNA)
RNA: GGGAGUUCUACAGUCCGACGAUCUAUAUUUGGACUUAGGACACUUUCCACUGAGGGUAACAAUGGAGCUGAUACACUUGCGGAAUGAGCUGGGAAAAUGGAAGGCGAGACAUGCUGCACCUGGGCUGAACAGGCAGGGUUCCCCAACAGAGGAUUGAGCAUCA
B6: chr4:76721835:76721836:+_ENSG00000138768_ENST00000264904|hu_mus|hu_hu_hu_mus_True|78_88 (ssRNA)
RNA: GGGAGUUCUACAGUCCGACGAUCGUUUGGCUGGGGUUUCUGAGACGUCUGGAAUACAACUCAUGUUUUGCUAAUAAAUCCUAGUUUCUCUAUGAAAUUCUCUUUGCCAAUCCUCUUCUCUAUUAGUUGCUUUAGUUUCUCUUUCAACAGAGGAUUGAGCAUCA
B7: chr8:104447970:104447971:+_ENSG00000164934_ENST00000297579|hu_hu|hu_hu_hu_mus_False|1_8 (ssRNA)
RNA: GGGAGUUCUACAGUCCGACGAUCAUACACUUCCCUGCUUCGGCUCUUGUCCACAGGAAAGAUUCUAAUAGACUUAUCAAAGCUGGCAGACACAAAUUCCUUCCCAGUGGGAGAGUAGUCCACAUCAAGCACUGCAGAUACAUGCAACAGAGGAUUGAGCAUCA
B8: 50198208_50199318_3837_ncRNA_ENSMUSG00000007850_ENSMUST00000123371|mouse|control|control (ssRNA)
RNA: GGGAGUUCUACAGUCCGACGAUCCCAUUACUGUAGUAGCUGCUGUUCACUGCUCCUUGGCUACCUAUGCAAUGUUUGAUUGAAAAUCACUGGAGUUUUCCUGUAAAACUUGGUCAUAUCCGCUCAUGCUGCUCUGGCCACCGUCAACAGAGGAUUGAGCAUCA
B9: 49307371_49344221_426_3pUTR_ENSMUSG00000069495_ENSMUST00000092123|mouse|control|control (ssRNA)
RNA: GGGAGUUCUACAGUCCGACGAUCGUAGGUGAUGUUCCGAUUCCUCCUCCUUCUCCAUCCCGGUGGGCAUCUGGGGCACGGCCCGGUUGAUGGAGACGCAGUCGUUGAGAUCAGGCAUGUCCUUGCCGCGGUAGAUGGGCAGCGCAACAGAGGAUUGAGCAUCA
B10: chr2:25965407:25965408:-_ENSG00000143970_ENST00000336112|hu_hu|FALSE|FALSE (ssRNA)
RNA: GGGAGUUCUACAGUCCGACGAUCCUGUGCUGCCUGAAUUAAAUCUCUGGCUAGGGUCUUUUCAUCAAAUGUUUGGCCUCUAGUGAACAGGUAAUUCUCCUUACUUAAAGUGGUUUGCUCAUUCAAUGGUAUCUCAGCCUUCACCAACAGAGGAUUGAGCAUCA
B11: chr16:84831616:84831617:-_ENSMUSG00000022890_ENSMUST00000023608|mus_hu|FALSE|FALSE (ssRNA)
RNA: GGGAGUUCUACAGUCCGACGAUCUCCUCCAGAUGUCUGUCGCUUAGAUUUGUAUUCUCUAAUCUUGUCCACAAAGAGUUUCUGUAUAGGAUCAAGUUCCUUAUUAAAUGCCACUGCUGUAACACCAAUGUUCCUCCGCAAAUGCAACAGAGGAUUGAGCAUCA
B12: chr14:78183846:78183847:+_ENSG00000119705_ENST00000557342|hu_hu|hu_hu_hu_mus_False|68_68 (ssRNA)
RNA: GGGAGUUCUACAGUCCGACGAUCUCUCAGAAAUCUUUCUUCAUCAGAUGUUUGAGCUCCGUGCAAAAGUUUUGGCCUUUGAGCUUGAACGUGGAUCUAUGGGAGGGAAAGCACUGUCAGAAAAGGUAAUUUUUUUUUUAAAGACAACAGAGGAUUGAGCAUCA
B13: chr2:73467608:73467609:+_ENSG00000135624_ENST00000258091|hu_hu|FALSE|FALSE (ssRNA)
RNA: GGGAGUUCUACAGUCCGACGAUCAUCUUGGGAUUUGGCAAUGUCUACCAAAGUCUUUGCUGCAGGAUGGACAACAUCAAGAAGUUUCAGAAUUGUGGCCCCAUCAUUAGAAAUUGUUGCUUUGCCUCUGCCAUCUACAAUAAGCAACAGAGGAUUGAGCAUCA
B14: chrX:154448470:154448471:+_ENSG00000155959_ENST00000286428|hu_hu|motif|central (ssRNA)
RNA: GGGAGUUCUACAGUCCGACGAUCAUCCAGCUUCUUUAAUACUGUAUCUGCAGUCUCAUUCCCAGGCUGUUUCAUGAAGGAAUCGGCAUCUUCCACAAACACGGCCUCAGGAAUCCCCAGGUGGAGCCGCCGCCCAUUCCCUGUCAACAGAGGAUUGAGCAUCA
B15: chr17:7479872:7479873:+_ENSG00000161960_ENST00000293831|hu_hu|FALSE|FALSE (ssRNA)
RNA: GGGAGUUCUACAGUCCGACGAUCAGCACGCACGUUGGUGCCCCCGAUACAGGCGUGACAGGAGGCGCCCAUGUAGUCUCCUAGUGCCAUGACCACCUUCUGUAUCUGCUGAGCCAAUUCUCGAGUGGGUGCUAGGACCAAGGCCAACAGAGGAUUGAGCAUCA
B16: chr1:39494564:39494565:+_ENSG00000168653_ENST00000372967|hu_hu|hu_hu_hu_mus_True|1_38 (ssRNA)
RNA: GGGAGUUCUACAGUCCGACGAUCAUGCAUUCGCCUCAUCGUUUUGUACCGAAGCAAGCACUCUUCGAAGUCAUCGAACUCUAUCUUGCACUCCUUUUCUGCCCGAGUCCCACCGAUCCCGUGUGCACACUCUAUCCAUUCUUUCAACAGAGGAUUGAGCAUCA
B17: chr14:76904430:76904431:+_ENSMUSG00000022010_ENSMUST00000022587|mus_mus|mus_mus_mus_hu_True|8_38 (ssRNA)
RNA: GGGAGUUCUACAGUCCGACGAUCUGCAGCCAAAAACACCCUCGUGGAAAAAAAGAGGGAACACCAGCAGCCUUGUAUAAGCUAGAUAAAAUCUUCUAGCUGUCUGCAGCCCAGGGAGAAACAGAAAUGGUGCUGGCUAAUUUACAACAGAGGAUUGAGCAUCA
B18: 23106879_23112864_568_CDS_ENSG00000147457_ENST00000313219|human|control|control (ssRNA)
RNA: GGGAGUUCUACAGUCCGACGAUCUGGGCAGGAGUUAGCACAGAGGGUGCUGAGCUCUGACAGGGCCACCACGGGGUGGGAGGAGAGGGGCGAGUUCUGAUACAGACGAUACACCUCCUCAGCCUUUUCCUUCAACAGCUCCACCAACAGAGGAUUGAGCAUCA
B19: chr5:31223311:31223312:+_ENSMUSG00000029163_ENSMUST00000031055|mus_hu|FALSE|FALSE (ssRNA)
RNA: GGGAGUUCUACAGUCCGACGAUCUGUCUCUUCAGCCGACGUAGACACGUCGGGCGGGACCCCAGUCUACGCGUGUUCAAGCUCUGGGUCCCCAUAGAGCAGGGCCCCGCUGAAGAUGGUGAGCGGCUCCUCCGAGUGCGCCAGCAACAGAGGAUUGAGCAUCA
B20: chr21:40768814:40768815:+_ENSG00000182093_ENST00000333781|hu_hu|motif|central (ssRNA)
RNA: GGGAGUUCUACAGUCCGACGAUCCCAUCCUCCUGUUCAGCUGAACGGAUGAAGCACAAUAGCGACAACUUUGUUACAGACGGAAAUCCAACAGGUAAUUCCAACACCACCUGCUACUCUAGUAGGAAAGGCUACCAGGCGGUCCAACAGAGGAUUGAGCAUCA
B21: chr12:39756943:39756944:-_ENSG00000139116_ENST00000544797|hu_mus|hu_hu_hu_mus_False|18_78 (ssRNA)
RNA: GGGAGUUCUACAGUCCGACGAUCGGUUUGGCUGUUACCCCCAAGGGAAUCCUGCAAUAGUCUUGUUAGCUUAGAGUCUCUGUAAGGGACAUGGGUGGCUCUCUUGCUCUUGUCCCCCAAGGCACUUAUUACAUUCCCAAGAGCCAACAGAGGAUUGAGCAUCA
B22: 46320489_46320609_3168_CDS_ENSG00000139218_ENST00000369367|human|control|control (ssRNA)
RNA: GGGAGUUCUACAGUCCGACGAUCUUUUCUUGUAUUUUCAUUCUGUUUCUCUGGGUCAUUCUUUCUGUACCGAUCAUUUCCUCGUGGACAUCUCCAACCAUCAUUUGCCCAUCUUCCCUUCCACCGGGGAGAGUAACUAUCUCUCAACAGAGGAUUGAGCAUCA

In this experiment the target is T1, UNK ZnF1-3. Kind of experiment: nsRBNS (natural sequence RNA bind-n-seq); RBNS binding buffer (assumed for nsRBNS): 25 mM Tris pH 7.5, 150 mM KCl, 3 mM MgCl2, 0.01% Triton X-100, 500 ug/ml BSA, 20 U/ml SUPERase-In, 4 C; UNK is unkempt and MSI1 is Musashi-1; names of the RNAs are library labels; protein concentration not given here; high values mean tight binding.
In the case of B1, the binding signal is 0.798 enrichment R.

Molecule B2 yielded a binding signal of 0.758 enrichment R. To B3 belongs 1.8 enrichment R; to B4, 0.845 enrichment R; to B5, 1.97 enrichment R. On to B6, for which the binding signal came out at 0.454 enrichment R. To B7 belongs 1.12 enrichment R; to B8, 0.566 enrichment R; to B9, 0.756 enrichment R.

In turn, B10 yielded a binding signal of 0.591 enrichment R. To B11 belongs 0.965 enrichment R.

B12 yielded a binding signal of 1.49 enrichment R. With B13, the binding signal was found to be 1.36 enrichment R.

The molecule B14 registered a binding signal of 0.795 enrichment R.

As for B15, the binding signal turned out to be 1.39 enrichment R. For B16 the value was 0.8 enrichment R; for B17, 2.49 enrichment R. To B18 belongs 2.38 enrichment R. B19 showed a binding signal of 0.61 enrichment R.

Molecule B20 registered a binding signal of 0.841 enrichment R.

B21: the binding signal was found to be 0.662 enrichment R. Molecule B22 displayed a binding signal of 0.438 enrichment R.
